Experimental data reported in article PMC4336329 (PLoS ONE, 2015).
About 2,200 (0.71%) of roughly 310,000 compounds showed an effect of 50% or more. Effects have a minus sign here. The list shows a part of the results.

Biological target: human ether-à-go-go-related gene (hERG) potassium channel (human, UniProt Q12809)
Assay: primary screen, population patch clamp on CHO cells stably expressing hERG

human ether-à-go-go-related gene (hERG) potassium channel, sequence (Q12809 whole entry, looked up): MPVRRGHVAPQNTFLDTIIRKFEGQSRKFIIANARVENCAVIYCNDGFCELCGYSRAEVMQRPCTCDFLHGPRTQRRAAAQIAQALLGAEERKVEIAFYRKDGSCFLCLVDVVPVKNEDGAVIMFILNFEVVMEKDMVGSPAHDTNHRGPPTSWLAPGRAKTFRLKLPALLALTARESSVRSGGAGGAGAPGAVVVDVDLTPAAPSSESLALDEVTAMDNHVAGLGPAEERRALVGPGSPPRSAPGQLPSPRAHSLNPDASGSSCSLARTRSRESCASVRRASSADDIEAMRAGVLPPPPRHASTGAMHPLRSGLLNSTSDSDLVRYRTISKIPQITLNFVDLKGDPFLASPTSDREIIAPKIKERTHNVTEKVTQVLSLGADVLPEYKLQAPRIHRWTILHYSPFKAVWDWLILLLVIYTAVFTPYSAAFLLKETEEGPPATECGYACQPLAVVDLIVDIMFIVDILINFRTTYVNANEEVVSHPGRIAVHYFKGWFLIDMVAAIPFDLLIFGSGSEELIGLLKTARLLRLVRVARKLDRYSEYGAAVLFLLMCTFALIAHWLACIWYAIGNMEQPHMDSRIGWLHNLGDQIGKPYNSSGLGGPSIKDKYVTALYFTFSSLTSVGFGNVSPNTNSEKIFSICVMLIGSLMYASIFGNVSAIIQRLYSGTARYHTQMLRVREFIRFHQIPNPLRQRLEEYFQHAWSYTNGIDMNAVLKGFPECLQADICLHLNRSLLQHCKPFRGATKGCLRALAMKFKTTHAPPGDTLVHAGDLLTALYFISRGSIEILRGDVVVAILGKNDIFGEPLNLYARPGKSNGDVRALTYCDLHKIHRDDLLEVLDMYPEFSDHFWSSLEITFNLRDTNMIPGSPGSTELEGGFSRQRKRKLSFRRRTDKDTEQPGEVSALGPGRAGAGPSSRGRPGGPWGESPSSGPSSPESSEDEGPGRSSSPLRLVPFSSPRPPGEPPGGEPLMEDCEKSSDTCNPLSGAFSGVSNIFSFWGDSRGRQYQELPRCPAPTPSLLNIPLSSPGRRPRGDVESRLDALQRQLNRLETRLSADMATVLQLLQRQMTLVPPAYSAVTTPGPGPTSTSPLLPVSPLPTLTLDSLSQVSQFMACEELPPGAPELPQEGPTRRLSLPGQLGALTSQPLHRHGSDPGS

Row | SMILES | hERG current change (%, negative = inhibition) at 1uM [%]
1 | COCCn1cnc2c1c(=O)n(Cc1c(F)cccc1Cl)c(=O)n2Cc1ccccc1 | 13.9
2 | COC(=O)CNC(=O)c1c(C)cc(=O)oc1C | 10.4
3 | CC1CCCN(c2ccc(C(=O)NCc3ccco3)cc2[N+](=O)[O-])C1 (stereo not drawn) | -5.97
4 | Cc1nc2c(C)cccn2c1C(=O)c1ccccc1.Cl | 6.45
5 | Cc1ccc(N/C(N)=N/c2nc3c(c(=O)[nH]2)CCCC3)c(C)c1 | 13
6 | O=c1[nH]c2ccccc2n1C1CCCCC1 | 7.5
7 | CC1(C)CC(=O)C(=Cc2cn(-c3ccccc3)nc2-c2ccccc2)C(=O)C1 | -22.6
8 | O=c1c2cc(N3CCOCC3)ccc2[nH]c(=S)n1CCN1CCCC1 | 7.58
9 | Cc1ccc(C)c(NC(=O)c2ccc(S(=O)(=O)C(F)F)cc2)c1 | -0.92
10 | CC(C)OC(=O)CC(=O)c1sc2nc3c(cc2c1N)CN(C)CC3 | 9.54
11 | O=C(Nc1ccc(S(=O)(=O)N2CCN(c3ccccc3)CC2)cc1)c1cccs1 | 8.09
12 | O=c1cc(CO)[nH]cc1OCc1ccccc1 | 15.6
13 | CSc1nc(=S)n(-c2cc(C)ccc2C)c(C)c1C(C)=O | 16.7
14 | COc1ccc(C2c3c(ncn(CCCO)c3=N)Oc3ccc4ccccc4c32)cc1OC (stereo not drawn) | -2.51
15 | Cc1ccc(-c2csc(/C(C#N)=C/Nc3ccccc3SC(F)(F)F)n2)c(C)c1 | 12
16 | Cc1ccc2c(CC(=O)OCn3nnc4ccccc4c3=O)coc2c1 | 13.7
17 | Cc1cc(C)c(NC(=O)CCCn2c(=O)oc3ccccc32)c(C)c1 | 8.19
18 | CC(=O)Oc1ccc(C(=O)Nn2cnnc2)cc1 | -1.61
19 | Cc1ccc(NS(=O)(=O)c2ccc(-c3cnc(C4CC4)o3)cc2)cc1 | 16.9
20 | CCOC(=O)/C(=C/c1ccc(Cl)cc1)NC(=O)c1ccco1 | -7.19
21 | COc1ccc(/C=C2\CCCc3c2nc2ccccc2c3C(=O)OCC(=O)c2c(N)n(C)c(=O)n(C)c2=O)cc1 | 10.9
22 | COc1cccc(C(=O)Nc2cccc3ccccc23)c1 | 17.3
23 | Oc1ccccc1-c1cc(-c2ccccc2Cl)[nH]n1 | 9.63

Row | SMILES | hERG current change (%, negative = inhibition) at 1uM [%]
24 | CCOc1ccccc1NC(=O)CSc1nnc(-c2cccnc2)o1 | -1.24
25 | CC/C(=N\NC(=S)NC(C)C)c1ccc(OC)c(OC)c1 | 2.61
26 | COc1ccc(C(=O)Nc2cccc(C(C)=O)c2)cc1OC | -3.86
27 | CC1Cc2ccccc2N1C(=O)CN1C(=O)NC(C)(c2ccc3c(c2)OCCO3)C1=O (stereo not drawn) | 15.9
28 | CC(C)C1C(c2ccccc2)NC(c2ccccc2)CC1(O)c1ccc(F)cc1.Cl (stereo not drawn) | 10.7
29 | COc1cccc(CNc2nc3nc(C)c(Cl)c(C)n3n2)c1 | -20.3
30 | CC(=O)Nc1cc(OC(=O)c2ccco2)cc(OC(=O)c2ccco2)c1 | 5.22
31 | Cc1ccc2c(CN3CCCCC3C)cc(=O)oc2c1.Cl (stereo not drawn) | -10.8
32 | COc1ccccc1N(CC(=O)NCC1CCCO1)C(=O)CNS(=O)(=O)c1ccccc1 (stereo not drawn) | 9.94
33 | O=C(c1cccs1)N1CC=C(c2ccccc2)CC1 | 5.46
34 | COC(=O)c1nccnc1C(=O)Nc1ccccc1N1CCOCC1 | 7.86
35 | COc1ccc(S(=O)(=O)N2CCCOC2CNC(=O)C(=O)NC2CCCC2)cc1 (stereo not drawn) | 10.7
36 | COc1ccc(N2CCN(C(=O)CSc3nc(C)cs3)CC2)cc1 | 1.15
37 | COc1ccc(C(=O)/C=C/c2cccc(OCc3ccccc3)c2)cc1CSCC(=O)O | 5.42
38 | CCOc1ncccc1C(=O)NCC(c1ccccc1)N(C)C (stereo not drawn) | 10.1
39 | O=C(NNC(=O)c1ccccc1O)c1cc2ccccc2o1 | 7.58
40 | CCn1c(=NC(=O)CS(=O)(=O)c2ccc(C)cc2)sc2cccc(OC)c21 | 1.66
41 | Cc1ncsc1C(=O)NCc1ccc(N2CCCC2=O)cc1 | -0.752
42 | CS(=O)(=O)N1CCN(C(=S)NCc2ccc(F)cc2)CC1 | 15.6
43 | Cl.c1ccc(Cn2nnnc2C(c2cccs2)N2CCc3ccccc3C2)cc1 (stereo not drawn) | 2.81
44 | COC(=O)c1cccc(COC(=O)c2ccccc2NC(=O)c2ccco2)c1 | 11.4
45 | CCCNC(C)(C)COC(=O)c1ccccc1.Cl | 13.1
46 | O=[N+]([O-])c1cc([N+](=O)[O-])c(Oc2c(F)cccc2F)cc1NN1CCCCC1 | 16.1

Row | SMILES | hERG current change (%, negative = inhibition) at 1uM [%]
47 | CN(CCC#N)C(=S)NC(=O)c1ccc(S(=O)(=O)N2CCOCC2)cc1 | 13
48 | COC(=O)N/N=C/c1cc(C)n(-c2ccccc2)c1C | 10.7
49 | O=C(c1cccc(F)c1)N1CCN(S(=O)(=O)c2ccccc2)CC1 | -2.83
50 | COc1ccc(/C=C\C(=O)Oc2cccc(/C=N/NC(=O)Cc3ccc(OC)c(OC)c3)c2)cc1 | 12.2
51 | O=C(Nc1ccc(C(=O)Oc2ccccc2)c(O)c1)c1ccco1 | 3.13
52 | O=C(NCCc1ccccc1)C(=O)N/N=C/c1ccc2c(c1)OCO2 | 3.69
53 | COc1ccc(CC(=O)Nc2cccc(S(=O)(=O)N3CCCC3)c2)cc1OC | 11
54 | CC(C)Oc1ccc(C2CC(=O)N(c3cccc(/C=C/C(=O)O)c3)C2=O)cc1 (stereo not drawn) | 15.2
55 | Cc1cc(=O)[nH]c(N2CCCC2)n1 | 14.3
56 | Cc1ccnc(NS(=O)(=O)c2ccc(NC(=O)C3CCCCC3C(=O)O)cc2)n1 (stereo not drawn) | 19.9
57 | Cc1ccc2cc3cc(C(=O)NCCCN4CCc5ccccc5C4)oc3nc2c1 | -6.48
58 | CCCCCc1nnc(NC(=O)Cc2cccs2)s1 | 12.6
59 | N#C/C(=C\Nc1ccc(F)c(Cl)c1)S(=O)(=O)c1ccccn1 | 7.7
60 | CN1C(=O)CSc2ccc(NC(=O)Nc3ccccn3)cc21 | 8.01
61 | COc1cc(C(=O)N2CCN(c3ccccc3)CC2)c([N+](=O)[O-])cc1OC | 17.5
62 | CCOc1ccc2nc(N3C(=O)CNC3=S)sc2c1 | 10.8
63 | CC1CCCC(NC(=O)C2N(CCCN3CCCC3)C(=O)C3C(C(=O)Nc4ccc(Cl)cc4)C4C=CC32O4)C1C (stereo not drawn) | 0.0737
64 | CN(c1ccccc1)S(=O)(=O)c1ccc(C(=O)NCCc2ccccc2)cc1 | 15.6
65 | C=CCn1cc(C(=O)N2CCN(C)CC2)c(=O)c2cc(S(=O)(=O)N(CC)CC)ccc21 | 6.93
66 | CC(C)c1ccc(/C=C/c2ccc(=O)n(C)n2)cc1 | -0.478
67 | COc1cc(C)c(C#N)c(OC)n1 | 10.1
68 | O=C(c1cccc(Cl)c1)C1CCCN(S(=O)(=O)c2ccccc2)C1 (stereo not drawn) | 5.87
69 | C=CCOc1cccc(CNCCCN2CCOCC2)c1.Cl | 9.02

Row | SMILES | hERG current change (%, negative = inhibition) at 1uM [%]
70 | c1ccc(-n2nnnc2NC2CCCCC2)cc1 | 6.98
71 | COc1cc(/C=N/NC(=O)c2cccc([N+](=O)[O-])c2)ccc1O | 0.107
72 | COc1ccc(C(=O)NNC(=S)NC(=O)c2cc(-c3ccccc3)nc3ccccc23)cc1 | 7.44
73 | O=C(c1ccc2snnc2c1)N1CCCCC1 | 9.41
74 | O=C(O)C(=O)O.O=[N+]([O-])c1cccc(CN2CCN(Cc3ccc(Br)cc3)CC2)c1 | -22.2
75 | Cn1c(=O)c(N)c2c3c(c(Br)ccc31)C(=O)c1ccccc1-2 | 6.1
76 | CN1CC[n+]2c(CN3C(=O)c4ccccc4C3=O)csc21.[I-] | 10.7
77 | O=C(O)C(Cc1ccccc1)n1cnnn1 (stereo not drawn) | 13.5
78 | Cn1c(SCC(=O)c2ccccc2)nnc1C1CC1 | -2.68
79 | O=C(CSc1ccc2ccccc2n1)NCCC1=CCCCC1 | 9.13
80 | O=C(CCn1cccn1)Nc1ccc2c(c1)OCCO2 | 22.2
81 | COC(=O)c1ccccc1NC(=O)CN(Cc1ccccc1)S(C)(=O)=O | 10.5
82 | Clc1ccc(Oc2cccc(/C=N/n3cnnc3)c2)cc1 | 7.8
83 | Cc1nnc(NCc2n[nH]c(=O)c3ccccc23)c2ccccc12 | 9.65
84 | O=C(Nc1ccccc1F)C1C2C=CC3(O2)C1C(=O)N(c1cccnc1)C3C(=O)NC1CCCCC1 (stereo not drawn) | 9.59
85 | Nc1nonc1-n1nnc(C(=O)N/N=C/c2ccccc2F)c1CN1CCc2ccccc21 | 9.17
86 | O=S(=O)(Nc1ccc2c(c1)OCCO2)c1ccc2oc3ccccc3c2c1 | 3.2
87 | CCOC(=O)C1CCCN(c2c(N3CCN(C4CCCCC4)CC3)c(=O)c2=O)C1 (stereo not drawn) | -33.8
88 | CCCn1nnnc1NCc1ccccc1Cl | 7.96
89 | COC(=O)c1ccc(C(=O)OC)c(NC(=O)COC(=O)C23CC4CC(CC(O)(C4)C2)C3)c1 | 5.8
90 | COc1ccc(C(=O)NCCCSC)cc1OC1CCN(C(C)C)CC1 | 13.4
